About 17,000 (4.4%) of roughly 390,000 compounds were called active. The shares of active, inactive and inconclusive entries below differ from those in the screen. Calls follow the shape of the dose curve; as a rule, active = well fitted inhibition curve with a large enough effect; inconclusive = small, poorly fitted or top-dose-only effect; inactive = no such curve, though single readings can be large or run the other way. Potencies beside an inconclusive call are fits to weak or partial responses and may not hold up.
The compounds below were run against Lysine-specific demethylase 4A (Homo sapiens) (UniProt O75164) (assay: qHTS Assay for Inhibitors of JMJD2A-Tudor Domain). Conditions: AlphaScreen JMJD2A-Tudor / H3K4me3 peptide binding; activity change, negative = inhibition: at 114 µM (top of the series).
Sequence of UniProt O75164 (O75164 whole entry, looked up, the tested form may be a part): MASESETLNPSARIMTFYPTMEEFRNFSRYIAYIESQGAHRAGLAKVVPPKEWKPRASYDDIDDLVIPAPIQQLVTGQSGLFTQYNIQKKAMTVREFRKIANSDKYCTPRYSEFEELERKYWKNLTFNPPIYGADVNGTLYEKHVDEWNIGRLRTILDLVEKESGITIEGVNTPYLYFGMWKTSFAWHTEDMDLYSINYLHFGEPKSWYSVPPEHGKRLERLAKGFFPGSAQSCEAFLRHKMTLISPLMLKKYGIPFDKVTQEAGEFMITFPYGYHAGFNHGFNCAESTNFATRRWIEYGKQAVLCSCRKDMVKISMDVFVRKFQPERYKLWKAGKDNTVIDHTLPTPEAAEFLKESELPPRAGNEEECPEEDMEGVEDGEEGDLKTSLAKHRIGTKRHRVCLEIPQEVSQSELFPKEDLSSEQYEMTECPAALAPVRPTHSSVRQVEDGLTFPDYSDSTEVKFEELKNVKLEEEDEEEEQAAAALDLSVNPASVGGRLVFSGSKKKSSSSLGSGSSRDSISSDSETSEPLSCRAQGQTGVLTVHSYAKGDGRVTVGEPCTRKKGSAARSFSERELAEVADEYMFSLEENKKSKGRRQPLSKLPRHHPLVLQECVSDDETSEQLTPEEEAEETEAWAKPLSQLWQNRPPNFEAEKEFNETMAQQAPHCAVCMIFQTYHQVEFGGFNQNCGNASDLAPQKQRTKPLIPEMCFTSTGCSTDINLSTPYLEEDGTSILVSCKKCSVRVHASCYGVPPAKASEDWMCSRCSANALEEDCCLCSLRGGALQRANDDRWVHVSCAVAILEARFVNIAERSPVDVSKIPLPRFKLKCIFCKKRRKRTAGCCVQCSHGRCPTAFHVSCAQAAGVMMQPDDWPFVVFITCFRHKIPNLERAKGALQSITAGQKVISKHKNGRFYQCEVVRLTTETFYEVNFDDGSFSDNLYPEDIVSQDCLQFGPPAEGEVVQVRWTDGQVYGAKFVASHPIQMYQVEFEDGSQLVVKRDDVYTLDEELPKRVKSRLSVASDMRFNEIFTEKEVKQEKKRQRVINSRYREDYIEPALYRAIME
% is scaled to controls: 0 for no effect and ±100 for the full control effect; potency is read from the fitted curve at half-maximal effect; tags tell the direction and shape of the fitted curve.
Also: nearly all actives have a fitted effect of over 50% in size.

Activity change, negative = inhibition, inactive:
COCCCNC(=O)CC1C[C@H](C(=O)N(C(C)C)C(C)C)[C@@]2(C)c3[nH]c4ccccc4c3CCN2C1=O (stereo not given in full) 7.19%, Cc1ccc(C(=O)CSc2nc3cccnc3n2C)cc1 -14.5%, O=S(=O)(c1ccc(Br)cc1)c1nnn2c1nc(NCc1ccc3c(c1)OCO3)c1sccc12 -22.3%, Cc1ccccc1NC(=O)COC(=O)[C@@H]1CCCN1C(=O)c1cccs1 -12.4%, O=[N+]([O-])c1ccc(S(=O)(=O)N2CCN=C2SCc2ccc(F)cc2)cc1 -13.8%, COc1ccc(Cl)cc1NC(=O)NCc1ccccn1 -12.1%, CCc1cc2c(cc(C(=O)OC)n2Cc2nc(-c3ccc(C)cc3)oc2C)s1 -12.4%, Cc1ccc(S(=O)(=O)N2CCCC(C(=O)N(Cc3cccs3)C3CC3)C2)cc1 (stereo not given) 7.57%, CCNC(=S)NNC(=O)c1ccccc1Cl -12.4%, CCc1nc2nc(C)c(NS(=O)(=O)c3ccc(C)cc3)c(=O)n2[nH]1 -2.74%, OCCNc1nc2ccc(Cl)cc2[nH]1 -1.49%, COc1ccc(NC(=O)COC(=O)/C=C/C(=O)OCC(=O)Nc2ccc(OC)c(Cl)c2)cc1Cl -18.6%, COc1ccc(C2Nc3ccccc3NC3=C2C(=O)CC(C)(C)C3)cc1OC (stereo not given) -22.6%, COc1ccc(-c2nc3scc(CCNC(=O)c4cccc(Br)c4)n3n2)cc1 -1.65%, COC(=O)[C@H]1Cc2c([nH]c3ccccc23)[C@H](c2ccccc2)N1 -11%, CCCCN1C(=O)c2ccc(C(=O)OCC(=O)NCCc3ccc(S(N)(=O)=O)cc3)cc2C1=O -6.16%, CC(C)N(Cc1ccccc1)C(=O)C1CCCN(c2ncnc3onc(-c4ccc(F)cc4)c23)C1 (stereo not given) -6.8%, OC(c1ccccc1)C(NCCNCc1ccccc1)c1ccccc1 (stereo not given) -22.8%, Cc1ccc2c(c1)-c1onc(C(=O)N3CCN(c4cc(Cl)ccc4C)CC3)c1CO2 -24%

Potency, active:
c1ccc(SSc2ccccn2)nc1 3.98 µM, C/C(=N\NC(=O)c1ccc(Cl)cc1)c1ccccn1 25.1 µM, COC(=O)C1=C(C(=O)OC)[C@@H]2N(C)c3ccc(OC)cc3[C@@]23C[C@@H](C(=O)OC)N(C(=O)c2ccc(Br)cc2)C3=N1 12.6 µM, Cc1cc(N=Nc2ccccc2)c(NCC(O)C(O)C(O)CO)cc1C (stereo not given) 44.7 µM, CCOC(=O)c1c(-c2ccc(-c3ccccc3)cc2)csc1NC(=O)CNCCN(C)C 35.5 µM, COc1ccccc1N1CCN(/N=C/C=C\c2ccco2)CC1 56.2 µM, CC(=O)Nc1ccc(NC(=O)C2(c3cccs3)CCOCC2)cc1 44.7 µM, Cc1ccc(S(=O)(=O)NNc2nc3ccccc3nc2C(F)(F)F)cc1 35.5 µM, O=C(O)C1=C(C(=O)O)C2C=CC1C2 89.1 µM, CC(=O)Nc1cccc(/C(C)=N\NC(=O)c2ccc(Cn3nc([N+](=O)[O-])c(Cl)c3C)o2)c1 50.1 µM, O=C(CSc1ncn(-c2ccccc2)n1)Nc1nc2ccccc2s1 44.7 µM, O=C(Nc1sc2c(c1C(=O)Nc1cccc(Cl)c1)CCCC2)c1cccs1 70.8 µM

Potency, inconclusive:
CCc1nnc(NS(=O)(=O)c2ccc(N/C=C/C(=O)c3ccc(C)cc3)cc2)s1 89.1 µM [inhibitor, partial curve], O=C1NN(c2cccc(Br)c2)C(=O)/C1=C/c1ccc(-c2cc([N+](=O)[O-])ccc2O)o1 56.2 µM [inhibitor, partial curve, poor fit], Cc1cc(C)cc(NC(=O)CSc2oc(-c3ccco3)nc2S(=O)(=O)c2ccc(Cl)cc2)c1 50.1 µM [inhibitor, partial curve], C/C(CC(=O)NCCN1CCOCC1)=N\NC(=O)c1ccncc1 89.1 µM [inhibitor, single point], Oc1cccc(N2Cc3ccccc3C2)c1 63.1 µM [inhibitor, partial curve, poor fit], CCC(C)(NC(=O)CNC(C)=O)C(=O)NC1CCCCC1 (stereo not given) 89.1 µM [inhibitor, single point], Cc1ccccc1NC(=O)CC1(c2ccc(N(C)C)cc2)C(=O)c2ccccc2C1=O 89.1 µM [inhibitor, single point], CC(=O)Nc1ccc(S(=O)(=O)NNC(=S)NCc2ccco2)cc1 22.4 µM [inhibitor, partial curve], Cc1ccc(/C=N/NC(=O)c2cc3ccccc3cc2O)o1 56.2 µM [inhibitor, partial curve], CC(C)C1=C2CCCCC2NC(=O)N1 (stereo not given) 56.2 µM [inhibitor, partial curve], COc1ccc(CN(Cc2cccn2C)C(=O)c2cc3cc(OC)ccc3[nH]2)cc1 50.1 µM [inhibitor, partial curve], COc1cc(OC)cc(C(=O)NCC(=O)OCC(=O)NCc2ccco2)c1 44.7 µM [inhibitor, partial curve], COc1ccc(-c2c(C)nn3c(C(F)(F)F)cc(-c4ccccc4)nc23)cc1 5.01 µM [inhibitor, full curve], COc1cc2c(cc1OC)C(C)N(C(=O)c1cc3c(C)cc(C)cc3[nH]1)CC2 (stereo not given) 56.2 µM [inhibitor, partial curve], COc1ccc(C(=O)NCc2ccc3c(c2)CCN3C(=O)c2ccc(C)cc2)cc1 89.1 µM [inhibitor, partial curve], O=[N+]([O-])c1ccc(NC(=S)N2CCc3ccccc32)cc1 35.5 µM [inhibitor, full curve], COc1ccc(Cn2ccc3nc(C)c(C(=O)N4CCN(c5ccc(OC)cc5)CC4)cc3c2=O)cc1 39.8 µM [inhibitor, partial curve], CSc1nnc(-c2cccs2)n1C 31.6 µM [inhibitor, full curve], CN(C)CC(C)(C)CNC(=S)NCc1ccc2c(c1)OCO2 0.891 µM [inhibitor, full curve, poor fit], O=C(O/N=C\c1ccc(N2CCCCC2)c([N+](=O)[O-])c1)c1ccc(Cl)cc1Cl 8.91 µM [inhibitor, full curve], O=C(NCc1ccc2c(c1)OCO2)c1cc(-c2ccccc2)c(N2CCOCC2)s1 50.1 µM [inhibitor, partial curve], CCCC(=O)N(Cc1cc(=O)[nH]c2ccccc12)c1cccc(C)c1 79.4 µM [inhibitor, partial curve], Cc1ccc(C(=O)Nc2ccccc2C(=O)NCc2ccco2)cc1S(=O)(=O)N1CCCCC1 63.1 µM [inhibitor, partial curve], CN(C)c1ccc(C(CNC(=O)c2ccccc2F)c2c[nH]c3ccccc23)cc1 (stereo not given) 8.91 µM [inhibitor, partial curve], CC(C)[C@H](NC(=O)c1ccc([N+](=O)[O-])cc1Cl)C(=O)N1CCN(C/C=C/c2ccccc2)CC1 50.1 µM [inhibitor, partial curve], Cc1cc(NC(=S)NC(=O)c2ccco2)c2ccccc2n1 22.4 µM [inhibitor, single point], O=C(COC(=O)c1ccccc1Sc1ccc(C(F)(F)F)cc1[N+](=O)[O-])NC(=O)NC1CCCC1 10 µM [inhibitor, full curve], Cc1cc([N+](=O)[O-])ccc1NCc1ccc2ccccc2c1 20 µM [inhibitor, partial curve], COc1ccc2[nH]cc(CCNC(=O)c3cnn(-c4ccc(C)cc4)c3C3CCN(C(=O)OC(C)(C)C)CC3)c2c1 44.7 µM [inhibitor, partial curve], CCn1c2ccccc2c2cc(NC(=S)N3CCOCC3)ccc21 44.7 µM [inhibitor, partial curve], CCOC(=O)CN1C(=O)C(=O)N(Cc2ccccc2F)C1=O 28.2 µM [inhibitor, partial curve], COc1ccc(OC)c(CCNC(=O)c2cnn(-c3ccc(C)cc3C)c2C2CCN(C(=O)OC(C)(C)C)CC2)c1 35.5 µM [inhibitor, full curve], COc1ccc(/C=C2/CC/C(=C\c3ccc(OC)c(OC)c3OC)C2=O)c(OC)c1OC 10 µM [inhibitor, partial curve], COc1ccc(C(=O)NC(=S)NCc2ccco2)cc1 28.2 µM [inhibitor, full curve, poor fit], Cc1nn(S(=O)(=O)c2ccc(C(C)(C)C)cc2)c(C)c1S(=O)(=O)N1CCC(C)CC1 79.4 µM [inhibitor, single point], COc1ccc(N2CCN(C(=O)c3ccc(CNS(=O)(=O)c4cc(C)ccc4C)cc3)CC2)cc1 22.4 µM [inhibitor, full curve], CN1CCN(S(=O)(=O)c2cccc(C(=O)Oc3ccc(C(C)(C)C)cc3)c2)CC1 44.7 µM [inhibitor, partial curve], CC(=O)C(C(c1ccccc1)N1CCCc2ccccc21)N1CCOCC1 (stereo not given) 39.8 µM [inhibitor, partial curve], Nc1c(C(=O)O)cnn1-c1ccccc1 17.8 µM [inhibitor, full curve, poor fit]
